In PubChem BioAssay (NCI):
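Five compound concentrations were applied to cells in 96-well plates for 48 hours; endpoints were derived by simple linear interpolation of the resulting dose-response curve. GI50 is the concentration that inhibits growth by half. TGI marks complete inhibition of growth.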 Peptide text beside a SMILES is read from it.

tested on: NCI-H322M lung; test: NCI anticancer screen, dose series, 48 h

Point of comparison: `C[C@]12CC[C@H](O)C=C1CC[C@@H]1[C@@H]2CC[C@]2(C)C(=N/O)/C(=C/c3ccncc3)C[C@@H]12`, TGI 48.2 µM. Against it:
- N#Cc1c(N)c2c(c(-c3ccccc3)c1-c1ccccc1)C(=O)N(NC(=O)c1ccccc1)C2=O — higher, > 100 µM
- CC(C)(C)OC(=O)NC(Cc1ccc(OCc2ccccc2)cn1)C(=O)NCc1ccccc1 (centres undefined) — higher, > 100 µM
- CC(=O)NC(CS)C(=O)NC(CO)C(=O)NC(CO)C(=O)NC(Cc1c[nH]c2ccccc12)C(=O)N1CCCC1C(=O)NC(CO)C(=O)NC(Cc1c[nH]c2ccccc12)C(=O)NC(Cc1c[nH]cn1)C(=O)NC(CO)C(=O)NC(Cc1c[nH]c2ccccc12)C(=O)NCC(=O)NCC(=O)NC(CC(=O)O)C(=O)NC(CCC(N)=O)C(=O)NC(CCCCN)C(=O)NC(Cc1ccccc1)C(=O)NC(CCCNC(=N)N)C(=O)NC(CCCCN)C(N)=O (centres undefined) (Ac-CSSWPSWHSWGGDQKFRK-NH2; configuration not given here) — not separable, > 25 µM
- COc1cc(Br)cc2nc(-c3cccs3)oc12 — higher, > 100 µM
- COC(=O)c1ccc2c(c1)C(=O)c1c-2n(CCCN)c(=O)c2cc([N+](=O)[O-])ccc12 — 17-fold lower, 2.92 µM
- Cc1cc(S(=O)(=O)NC2=NC(c3ccccc3)c3ccccc3N2)c(S)cc1Cl (centres undefined) — higher, > 100 µM
- COc1ccc2c(c1)CC[C@@H]1[C@@H]2CC[C@]2(C)C(=O)/C(=C/c3ccncc3)C[C@@H]12 — higher, > 100 µM
- COC(=O)c1c2c(c(-c3ccccc3)c3c1-c1nc(Cl)ccc1CC3)CCc1ccc(Cl)nc1-2 — higher, > 100 µM
- COC(=O)[C@]12CCC(C)(C)C[C@H]1C1=CC[C@@H]3[C@@]4(C)CC[C@H](OC5OC(CO)C(O)C(O)C5OC5OC(CO)C(O)C(O)C5O)C(C)(C)[C@@H]4CC[C@@]3(C)[C@]1(C)CC2 (some centres undefined) — 2.6-fold lower, 18.8 µM
- CN1CCN(Cc2ccc(NC(=O)c3nc4ccc5[nH]ncc5c4c4c3CCC4)cc2C(F)(F)F)CC1 — 17-fold lower, 2.76 µM
- N#Cc1cccc(/C=C(/C(=O)c2ccccc2)c2ccccc2)c1 — 2-fold lower, 24.7 µM
- Cc1ccc(N=Nc2c(N)nn(-c3ccccc3)c2N)cc1 — higher, > 100 µM
- COC(=O)n1c(=O)n(-c2ccccc2)c(=O)n1C(=O)Nc1ccccc1 — higher, > 100 µM
- C=CC(=O)N1CCC([C@@H]2CCNc3c(C(N)=O)c(-c4ccc(Oc5ccccc5)cc4)nn32)CC1 — 1.7-fold lower, 28.1 µM
- CNNC(=N\S(=O)(=O)c1cc(C(=O)Nc2ccc(Cl)cc2)c(Cl)cc1SCc1ccccc1)/N=C/c1ccc([N+](=O)[O-])s1 — higher, > 100 µM
- COc1ccccc1N1C(=O)CS(=O)(=O)C1c1cccc(Oc2ccccc2)c1 (centres undefined) — within 1.5-fold, 41.7 µM
- COc1ccc2[nH]c(=O)c(/C=C/C(=O)/C=C/c3ccc(O)c(OC)c3)cc2c1 — 6.9-fold lower, 6.97 µM
- O=C(Cc1ccccc1)NNc1nc(NNC(=O)c2ccncc2)nc(Nc2ccccc2)n1 — not separable, > 10 µM
- CCOC(CI)O[C@@H]1C=C[C@H](OC(C)=O)C1 (some centres undefined) — higher, > 100 µM
- COc1cc(O)c2c(c1)C(=O)c1cc(C)cc(O)c1C2=O — higher, > 100 µM
- COc1ccc2oc(=O)c(CC=C(C)C)c(O)c2c1C — higher, > 100 µM
- CCC1(C(=O)OC)CCc2c(OC)ccc(OC)c2C1=O (centres undefined) — higher, > 100 µM
- COc1cc2ccnc(-c3c4ccccc4c(N)c4c(OC)c(OC)ccc34)c2cc1OC — 4.5-fold lower, 10.7 µM
- CCN(CC)CCn1c2cc3c(cc2c(=O)c2cccnc21)OCO3 — not separable, > 10 µM
- O=C1C[C@@H](Sc2ccccc2)C2(OCCO2)[C@H]2ON3CCC[C@@H]3[C@@H]12 — 13-fold lower, 3.81 µM
- COc1ccc(OC)c(C#Cc2ccc(OC)c(C(=O)NCCc3ccc(F)cc3)c2)c1 — higher, > 100 µM
- O=C(/C=C/c1ccccc1O)c1cccnc1 — higher, > 100 µM
- O=C(NNc1ccccc1)OCc1ccccc1 — higher, > 100 µM
- CCOC(=O)NC — higher, > 100 µM
- CC(C)=CCC[C@](C)(O[C@@H]1O[C@H](CO)[C@@H](O)[C@H](O)[C@H]1O)[C@H]1CC[C@]2(C)[C@@H]1[C@H](O)C[C@@H]1[C@@]3(C)CC[C@H](O)C(C)(C)[C@@H]3[C@@H](O[C@@H]3O[C@H](CO)[C@@H](O)[C@H](O)[C@H]3O)C[C@]12C — higher, > 100 µM
- O=C1Nc2cc([N+](=O)[O-])ccc2C(=O)N2CCC[C@@H]12 — higher, > 100 µM
- CCCNC(C#N)c1ccc(OCCCCCCCCCCOc2ccc(C(C#N)NCCC)cc2)cc1 (centres undefined) — higher, > 100 µM
- Cc1cc(C)n(-c2nc3ccccc3c(=O)n2-c2ccccc2)n1 — higher, > 100 µM
- Nc1ccc(Nc2c3ccccc3nc3ccccc23)cc1 — not separable, > 10 µM
- Cc1nc(-c2cc3c(ccc4ccccc43)oc2=O)cc2c1c(=O)oc1ccc3ccccc3c12 — higher, > 100 µM
- O=C1c2cscc2C(=O)C1(O)O — higher, > 100 µM
- CC(=O)O[C@H]1CC[C@]2(C)[C@H]3CC=C4[C@@H]5CC(C)(C)CC[C@]5(C(=O)NCCNCCN)CC[C@@]4(C)[C@]3(C)CC[C@H]2C1(C)C — 17-fold lower, 2.9 µM
- Cc1cc(S(=O)(=O)n2ccnc2Oc2ccccc2)c(SSc2cc(Cl)c(C)cc2S(=O)(=O)n2ccnc2Oc2ccccc2)cc1Cl — higher, > 100 µM
- NC(CSc1nc2ccccn2c1[N+](=O)[O-])C(=O)O (centres undefined) — higher, > 100 µM
- CCC[CH2][Ge]([CH2]CCC)([CH2]CCC)[O]C(=O)C(OC)c1ccccc1 (centres undefined) — higher, > 100 µM
- CC(C)[Si](OC1=C(C(=O)N(C)c2ccccc2Cl)CCCC1)(C(C)C)C(C)C — 1.7-fold lower, 28.2 µM
- Nc1c(C(=O)c2cccc(C#CCN3CCOCC3)c2)cnn1-c1ccc(F)cc1 — not separable, > 25 µM
- COc1ccc2c(c1)sc1nc(-c3ccccc3)c(-c3ccc(O)c(OC)c3)n12 — higher, > 100 µM
- CCOC(=O)[C@H]1Nc2ccc(Cl)cc2[C@H]2OCC[C@@H]12 — higher, > 100 µM
- Fc1ccc(-c2nnc3sc(COc4ccccc4Cl)nn23)cc1Cl — higher, > 100 µM

Point of comparison: `COC(=O)c1ccc2c(c1)C(=O)c1c-2n(CCCN)c(=O)c2cc([N+](=O)[O-])ccc12`, GI50 0.795 µM. Against it:
- CN1CCN(Cc2ccc(NC(=O)c3nc4ccc5[nH]ncc5c4c4c3CCC4)cc2C(F)(F)F)CC1 — within 1.5-fold, 1.11 µM
- N#Cc1cccc(/C=C(/C(=O)c2ccccc2)c2ccccc2)c1 — 12-fold higher, 9.62 µM
- Cc1ccc(N=Nc2c(N)nn(-c3ccccc3)c2N)cc1 — 6.9-fold higher, 5.46 µM
- C=CC(=O)N1CCC([C@@H]2CCNc3c(C(N)=O)c(-c4ccc(Oc5ccccc5)cc4)nn32)CC1 — 2.1-fold higher, 1.65 µM
- CNNC(=N\S(=O)(=O)c1cc(C(=O)Nc2ccc(Cl)cc2)c(Cl)cc1SCc1ccccc1)/N=C/c1ccc([N+](=O)[O-])s1 — higher, > 100 µM
- COc1ccc2[nH]c(=O)c(/C=C/C(=O)/C=C/c3ccc(O)c(OC)c3)cc2c1 — 3.1-fold higher, 2.44 µM
- O=C(NNc1ccccc1)OCc1ccccc1 — 24-fold higher, 19.3 µM
- CC(=O)O[C@H]1CC[C@]2(C)[C@H]3CC=C4[C@@H]5CC(C)(C)CC[C@]5(C(=O)NCCNCCN)CC[C@@]4(C)[C@]3(C)CC[C@H]2C1(C)C — 1.9-fold higher, 1.54 µM
- CCC[CH2][Ge]([CH2]CCC)([CH2]CCC)[O]C(=O)C(OC)c1ccccc1 (centres undefined) — 67-fold higher, 53 µM
- Nc1c(C(=O)c2cccc(C#CCN3CCOCC3)c2)cnn1-c1ccc(F)cc1 — higher, > 25 µM
- COc1ccc2c(c1)sc1nc(-c3ccccc3)c(-c3ccc(O)c(OC)c3)n12 — higher, > 100 µM
- Fc1ccc(-c2nnc3sc(COc4ccccc4Cl)nn23)cc1Cl — higher, > 100 µM
